{"source": "the supplement of paper PMC8728848", "binders": {"B1": {"name": "ZG16p (Homo sapiens), O60844 (protein)", "chain": "ARSSSYSGEYGGGGGKRFSHSGNQLDGPITALRVRVNTYYIVGLQVRYGKVWSDYVGGRNGDLEEIFLHPGESVIQVSGKYKWYLKKLLFVTDKGRYLSFGKDSGTSFNAVPLHPNTVLRFISGRSGSLIDAIGLHWDVYPSSCSRC"}}, "experiment_in_all_cases": "glycan array binding signal (z-score within array); higher = stronger binding", "settings_in_all_cases": "glycan notation: IUPAC condensed, linker removed", "key": {"[1]": {"target": "Glc(b1-4)Glc(b1-4)Glc(b1-4)Glc(b1-4)Glc(b1-4)Glc", "how_it_was_run": "(§1)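 Glycan array binding is given as a within-array Z-score, which can be read as non-binding when negative. The arrays, 3228 of them, came from the Consortium for Functional Glycomics database and were retained only where the protein sequence was available. Z-scores were averaged across arrays of the same protein sequence at different concentrations or buffers and across linkers.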"}, "[2]": {"target": "Glc(b1-4)Glc(b1-4)Glc(b1-4)Glc(b1-4)Glc(b1-4)Glc(b1-4)Glc(b1-4)Glc", "how_it_was_run": "as §1"}, "[3]": {"target": "Glc(b1-4)Glc(b1-4)Glc(b1-4)Glc(b1-4)Glc(b1-4)Glc(b1-4)Glc(b1-4)Glc(b1-4)Glc", "how_it_was_run": "as §1"}, "[4]": {"target": "Glc(b1-4)Glc(b1-4)Glc(b1-4)Glc(b1-4)Glc(b1-4)Glc(b1-4)Glc(b1-4)Glc(b1-4)Glc(b1-4)Glc", "how_it_was_run": "as §1"}, "[5]": {"target": "Glc(b1-4)Glc(b1-4)Glc(b1-4)Glc(b1-4)Glc(b1-4)Glc(b1-4)Glc(b1-4)Glc(b1-4)Glc(b1-4)Glc(b1-4)Glc", "how_it_was_run": "as §1"}, "[6]": {"target": "Glc(b1-4)Glc(b1-4)Glc(b1-4)Glc(b1-4)Glc(b1-4)Glc(b1-4)Glc(b1-4)Glc(b1-4)Glc(b1-4)Glc(b1-4)Glc(b1-4)Glc", "how_it_was_run": "as §1"}, "[7]": {"target": "Glc(b1-4)Glc(b1-4)Glc(b1-4)Glc(b1-4)Glc(b1-4)Glc(b1-4)Glc(b1-4)Glc(b1-4)Glc(b1-4)Glc(b1-4)Glc(b1-4)Glc(b1-4)Glc", "how_it_was_run": "as §1"}, "Glc(b1-6)Glc": {"target": "Glc(b1-6)Glc", "how_it_was_run": "as §1"}, "Glc(b1-6)Glc(b1-6)Glc": {"target": "Glc(b1-6)Glc(b1-6)Glc", "how_it_was_run": "as §1"}, "[8]": {"target": "Glc(b1-6)Glc(b1-6)Glc(b1-6)Glc", "how_it_was_run": "as §1"}, "[9]": {"target": "Glc(b1-6)Glc(b1-6)Glc(b1-6)Glc(b1-6)Glc", "how_it_was_run": "as §1"}, "[10]": {"target": "Glc(b1-6)Glc(b1-6)Glc(b1-6)Glc(b1-6)Glc(b1-6)Glc", "how_it_was_run": "as §1"}, "[11]": {"target": "Glc(b1-6)Glc(b1-6)Glc(b1-6)Glc(b1-6)Glc(b1-6)Glc(b1-6)Glc", "how_it_was_run": "as §1"}, "[12]": {"target": "Glc(b1-6)Glc(b1-6)Glc(b1-6)Glc(b1-6)Glc(b1-6)Glc(b1-6)Glc(b1-6)Glc", "how_it_was_run": "as §1"}, "[13]": {"target": "Glc(b1-6)Glc(b1-6)Glc(b1-6)Glc(b1-6)Glc(b1-6)Glc(b1-6)Glc(b1-6)Glc(b1-6)Glc", "how_it_was_run": "as §1"}, "GlcA(b1-3)Gal": {"target": "GlcA(b1-3)Gal", "how_it_was_run": "as §1"}, "[14]": {"target": "GlcA(b1-3)Gal(b1-3)GlcNAc", "how_it_was_run": "as §1"}, "GlcA(b1-3)Gal(b1-4)Glc": {"target": "GlcA(b1-3)Gal(b1-4)Glc", "how_it_was_run": "as §1"}, "[15]": {"target": "GlcA(b1-3)Gal(b1-4)GlcNAc(b1-3)Gal(b1-4)Glc", "how_it_was_run": "as §1"}, "[16]": {"target": "GlcA(b1-3)Gal(b1-4)GlcNAc(b1-3)Gal(b1-4)GlcNAc(b1-3)Gal(b1-4)Glc", "how_it_was_run": "as §1"}, "[17]": {"target": "GlcA(b1-3)GlcNAc(b1-4)GlcA(b1-3)GlcNAc", "how_it_was_run": "as §1"}, "[18]": {"target": "GlcA(b1-3)GlcNAc(b1-4)GlcA(b1-3)GlcNAc(b1-4)GlcA(b1-3)GlcNAc(b1-4)GlcA(b1-3)GlcNAc(b1-4)GlcA(b1-3)GlcNAc(b1-4)GlcA(b1-3)GlcNAc(b1-4)GlcA(b1-3)GlcNAc", "how_it_was_run": "as §1"}, "[19]": {"target": "GlcA(b1-3)GlcNAc(b1-4)GlcA(b1-3)GlcNAc(b1-4)GlcA(b1-3)GlcNAc(b1-4)GlcA(b1-3)GlcNAc(b1-4)GlcA(b1-3)GlcNAc(b1-4)GlcA(b1-3)GlcNAc(b1-4)GlcA(b1-3)GlcNAc(b1-4)GlcA(b1-3)GlcNAc", "how_it_was_run": "as §1"}, "[20]": {"target": "GlcA(b1-4)GlcNAc(a1-4)GlcA(b1-4)2,5-Anhydro-Man", "how_it_was_run": "as §1"}, "[21]": {"target": "GlcA(b1-4)GlcNAc(a1-4)GlcA(b1-4)GlcNAc(a1-4)GlcA(b1-4)GlcNAc(a1-4)GlcA(b1-4)2,5-Anhydro-Man", "how_it_was_run": "as §1"}, "GlcA3S(b1-3)Gal": {"target": "GlcA3S(b1-3)Gal", "how_it_was_run": "as §1"}, "GlcA3S(b1-3)Gal(b1-4)Glc": {"target": "GlcA3S(b1-3)Gal(b1-4)Glc", "how_it_was_run": "as §1"}, "[22]": {"target": "GlcA3S(b1-3)Gal(b1-4)GlcNAc(b1-3)Gal(b1-4)Glc", "how_it_was_run": "as §1"}, "[23]": {"target": "GlcA3S(b1-3)Gal(b1-4)GlcNAc(b1-3)Gal(b1-4)GlcNAc(b1-3)Gal(b1-4)Glc", "how_it_was_run": "as §1"}, "GlcNAc(a1-4)Gal": {"target": "GlcNAc(a1-4)Gal", "how_it_was_run": "as §1"}, "[24]": {"target": "GlcNAc(a1-4)Gal(b1-3)[Fuc(a1-2)]Gal", "how_it_was_run": "as §1"}, "GlcNAc(b1-2)Fuc": {"target": "GlcNAc(b1-2)Fuc", "how_it_was_run": "as §1"}, "GlcNAc(b1-2)Man": {"target": "GlcNAc(b1-2)Man", "how_it_was_run": "as §1"}, "[25]": {"target": "GlcNAc(b1-2)Man(a1-3)[GlcNAc(b1-2)Man(a1-6)]Man", "how_it_was_run": "as §1"}, "[26]": {"target": "GlcNAc(b1-2)Man(a1-3)[GlcNAc(b1-2)Man(a1-6)]Man(b1-4)GlcNAc(b1-4)GlcNAc", "how_it_was_run": "as §1"}, "[27]": {"target": "GlcNAc(b1-2)Man(a1-3)[GlcNAc(b1-2)Man(a1-6)]Man(b1-4)GlcNAc(b1-4)[Fuc(a1-6)]GlcNAc", "how_it_was_run": "as §1"}, "[28]": {"target": "GlcNAc(b1-2)Man(a1-3)[GlcNAc(b1-2)Man(a1-6)][GlcNAc(b1-4)]Man(b1-4)GlcNAc(b1-4)GlcNAc", "how_it_was_run": "as §1"}, "[29]": {"target": "GlcNAc(b1-2)Man(a1-3)[Man(a1-3)[Man(a1-6)]Man(a1-6)][GlcNAc(b1-4)]Man(b1-4)GlcNAc(b1-4)GlcNAc", "how_it_was_run": "as §1"}, "[30]": {"target": "GlcNAc(b1-2)[GlcNAc(b1-4)]Man(a1-3)[GlcNAc(b1-2)Man(a1-6)][GlcNAc(b1-4)]Man(b1-4)GlcNAc(b1-4)GlcNAc", "how_it_was_run": "as §1"}, "[31]": {"target": "GlcNAc(b1-2)[GlcNAc(b1-4)]Man(a1-3)[GlcNAc(b1-2)[GlcNAc(b1-4)][GlcNAc(b1-6)]Man(a1-6)][GlcNAc(b1-4)]Man(b1-4)GlcNAc(b1-4)GlcNAc", "how_it_was_run": "as §1"}, "[32]": {"target": "GlcNAc(b1-2)[GlcNAc(b1-4)]Man(a1-3)[GlcNAc(b1-2)[GlcNAc(b1-6)]Man(a1-6)]Man(b1-4)GlcNAc(b1-4)GlcNAc", "how_it_was_run": "as §1"}, "GlcNAc(b1-3)Fuc": {"target": "GlcNAc(b1-3)Fuc", "how_it_was_run": "as §1"}, "GlcNAc(b1-3)Gal(b1-4)Glc": {"target": "GlcNAc(b1-3)Gal(b1-4)Glc", "how_it_was_run": "as §1"}, "[33]": {"target": "GlcNAc(b1-3)[GlcNAc(b1-6)]Gal", "how_it_was_run": "as §1"}, "[34]": {"target": "GlcNAc(b1-3)[GlcNAc(b1-6)]Gal(b1-4)GlcNAc(b1-3)[GlcNAc(b1-6)]Gal(b1-4)GlcNAc(b1-3)Gal(b1-4)Glc", "how_it_was_run": "as §1"}}, "note": "The other results are listed elsewhere or left out."}
{"binder": "B1", "values": [{"measurement": "glycan array binding signal (z-score)", "setting": "[1]", "result": 0.102}, {"measurement": "glycan array binding signal (z-score)", "setting": "[2]", "result": -0.028}, {"measurement": "glycan array binding signal (z-score)", "setting": "[3]", "result": 0.1}, {"measurement": "glycan array binding signal (z-score)", "setting": "[4]", "result": -0.322}, {"measurement": "glycan array binding signal (z-score)", "setting": "[5]", "result": -0.187}, {"measurement": "glycan array binding signal (z-score)", "setting": "[6]", "result": -0.171}, {"measurement": "glycan array binding signal (z-score)", "setting": "[7]", "result": -0.259}, {"measurement": "glycan array binding signal (z-score)", "setting": "Glc(b1-6)Glc", "result": 2.7}, {"measurement": "glycan array binding signal (z-score)", "setting": "Glc(b1-6)Glc(b1-6)Glc", "result": 0.72}, {"measurement": "glycan array binding signal (z-score)", "setting": "[8]", "result": 0.263}, {"measurement": "glycan array binding signal (z-score)", "setting": "[9]", "result": 0.205}, {"measurement": "glycan array binding signal (z-score)", "setting": "[10]", "result": -0.164}, {"measurement": "glycan array binding signal (z-score)", "setting": "[11]", "result": -0.016}, {"measurement": "glycan array binding signal (z-score)", "setting": "[12]", "result": 0.051}, {"measurement": "glycan array binding signal (z-score)", "setting": "[13]", "result": 0.274}, {"measurement": "glycan array binding signal (z-score)", "setting": "GlcA(b1-3)Gal", "result": -0.328}, {"measurement": "glycan array binding signal (z-score)", "setting": "[14]", "result": -0.328}, {"measurement": "glycan array binding signal (z-score)", "setting": "GlcA(b1-3)Gal(b1-4)Glc", "result": -0.328}, {"measurement": "glycan array binding signal (z-score)", "setting": "[15]", "result": -0.328}, {"measurement": "glycan array binding signal (z-score)", "setting": "[16]", "result": -0.328}, {"measurement": "glycan array binding signal (z-score)", "setting": "[17]", "result": -0.328}, {"measurement": "glycan array binding signal (z-score)", "setting": "[18]", "result": -0.328}, {"measurement": "glycan array binding signal (z-score)", "setting": "[19]", "result": -0.512}, {"measurement": "glycan array binding signal (z-score)", "setting": "[20]", "result": -0.25}, {"measurement": "glycan array binding signal (z-score)", "setting": "[21]", "result": -0.228}, {"measurement": "glycan array binding signal (z-score)", "setting": "GlcA3S(b1-3)Gal", "result": -0.328}, {"measurement": "glycan array binding signal (z-score)", "setting": "GlcA3S(b1-3)Gal(b1-4)Glc", "result": -0.16}, {"measurement": "glycan array binding signal (z-score)", "setting": "[22]", "result": -0.327}, {"measurement": "glycan array binding signal (z-score)", "setting": "[23]", "result": -0.299}, {"measurement": "glycan array binding signal (z-score)", "setting": "GlcNAc(a1-4)Gal", "result": 0.222}, {"measurement": "glycan array binding signal (z-score)", "setting": "[24]", "result": -0.255}, {"measurement": "glycan array binding signal (z-score)", "setting": "GlcNAc(b1-2)Fuc", "result": 0.385}, {"measurement": "glycan array binding signal (z-score)", "setting": "GlcNAc(b1-2)Man", "result": 0.532}, {"measurement": "glycan array binding signal (z-score)", "setting": "[25]", "result": 0.672}, {"measurement": "glycan array binding signal (z-score)", "setting": "[26]", "result": -0.353}, {"measurement": "glycan array binding signal (z-score)", "setting": "[27]", "result": -0.228}, {"measurement": "glycan array binding signal (z-score)", "setting": "[28]", "result": -0.365}, {"measurement": "glycan array binding signal (z-score)", "setting": "[29]", "result": -0.362}, {"measurement": "glycan array binding signal (z-score)", "setting": "[30]", "result": -0.42}, {"measurement": "glycan array binding signal (z-score)", "setting": "[31]", "result": -0.42}, {"measurement": "glycan array binding signal (z-score)", "setting": "[32]", "result": -0.373}, {"measurement": "glycan array binding signal (z-score)", "setting": "GlcNAc(b1-3)Fuc", "result": 0.039}, {"measurement": "glycan array binding signal (z-score)", "setting": "GlcNAc(b1-3)Gal(b1-4)Glc", "result": -0.328}, {"measurement": "glycan array binding signal (z-score)", "setting": "[33]", "result": 0.435}, {"measurement": "glycan array binding signal (z-score)", "setting": "[34]", "result": -0.328}]}
